This data set in a line: Uninfected host cell cytotoxicity counter screen. The format is cell-based. The settings on record: human, uninfected HeLa-ACE2 cells. In general terms: A counterscreen serves to expose hits that act by an unwanted route or on another target.

Usually CC50 stands for the concentration at which the toxic effect on the cells reaches its halfway point. The low end stands for greater toxicity to the cells, the high end for lower toxicity to the cells. In turn, `CCC(CC)COC(=O)[C@H](C)N[P@](=O)(OC[C@H]1O[C@@](C#N)(c2ccc3c(N)ncnn23)[C@H](O)[C@@H]1O)Oc1ccccc1` [Remdesivir] displayed a CC50 at 24 h of 8.87 µM.

These data come from patent publication US20250025454A1 (priority 2021, published 2025).
